Among all 45,000 compounds or so, about 65 (0.1%) were called active. Calls follow the shape of the dose curve; as a rule, active = well fitted activation curve with a large enough effect; inconclusive = small, poorly fitted or top-dose-only effect; inactive = no such curve, though single readings can be large or run the other way. The list shows a part of the results.
Molecular target: Galactocerebrosidase (Homo sapiens) (UniProt P54803)
Assay: A Novel Cell-Based Assay to Identify Small Molecules for B -Galactocerebrosidase; also: 0% is about no effect; nearly all actives have a fitted effect of over 65% in size
Details: 145M-Twi-hGALC-G270D cells (Twitcher mouse brain line with human GALC G270D), HMU-beta-Gal fluorescence, 48 h; series mostly up to 57.5 µM; activation: at the top concentration
Procedure, shortened: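 Brain-derived Twitcher mouse 145M-Twi cells stably expressing human GALC-G270D or wild-type GALC, treated live, then residual GALC activity read by fluorescence of HMU-b-Gal substrate (0.1 mM final) in citrate-phosphate buffer pH 5.2 with sodium taurocholate. Signal increase indicates enhancement.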

UniProt P54803, sequence (P54803 whole entry, looked up): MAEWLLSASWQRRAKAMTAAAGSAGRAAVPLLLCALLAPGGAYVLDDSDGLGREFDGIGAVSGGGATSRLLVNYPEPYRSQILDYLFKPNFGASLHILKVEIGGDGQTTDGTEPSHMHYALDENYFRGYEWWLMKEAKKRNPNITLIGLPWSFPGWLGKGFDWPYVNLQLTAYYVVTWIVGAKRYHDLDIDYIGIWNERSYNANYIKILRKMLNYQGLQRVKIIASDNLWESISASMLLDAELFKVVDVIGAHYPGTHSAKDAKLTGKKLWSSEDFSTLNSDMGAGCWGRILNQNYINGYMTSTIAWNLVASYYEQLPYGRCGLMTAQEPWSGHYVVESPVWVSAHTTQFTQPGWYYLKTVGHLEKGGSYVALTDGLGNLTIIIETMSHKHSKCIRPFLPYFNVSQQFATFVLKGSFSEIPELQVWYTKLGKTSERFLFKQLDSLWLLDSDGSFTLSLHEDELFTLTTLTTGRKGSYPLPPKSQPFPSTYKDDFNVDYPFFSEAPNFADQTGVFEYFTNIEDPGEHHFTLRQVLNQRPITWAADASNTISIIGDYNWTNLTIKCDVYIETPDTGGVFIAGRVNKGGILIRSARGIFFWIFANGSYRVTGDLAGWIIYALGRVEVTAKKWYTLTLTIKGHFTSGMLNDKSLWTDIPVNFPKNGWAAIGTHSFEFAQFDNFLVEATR

activation, inactive:
Cn1nnnc1SCCNCc1ccc(OCc2ccccc2Cl)cc1 11.9%
Cc1cccc(C(=O)Nc2cccc(C(=O)OCc3cc(=O)n4nc(C(C)C)sc4n3)c2)c1 -8.28%
Cc1ccc(N(C)S(=O)(=O)c2ccc3[nH]c4c(c3c2)CCCC4)cc1 -12.5%
O=C(COc1ccccc1)NCc1ccc2c(c1)CCN2C(=O)c1ccccc1 -9.27%
Cc1ccc(NC(=O)CSc2c3c(nc4ccccc24)CCCC3)cc1F -4.45%
Cc1ccc(CCNC(=O)c2cc(Nc3ccc(C)c(C)c3)nc3ccccc23)cc1 -24.8%
CC(C)C1C(=O)Nc2ccc(S(=O)(=O)NCc3ccc(Cl)cc3)cc21 (configuration not stated) -29.3%
CC(=O)c1cccc(NC(=O)c2c(-c3ccccc3)c(-c3ccccc3)nn(C)c2=O)c1 -9.66%
CN(Cc1ccccc1)c1ccc(-c2nc(-c3ccco3)no2)cc1[N+](=O)[O-] -19.6%
Cc1ccccc1Nc1c(-c2cccc(N(C)C)c2)nc2ccc(Br)cn12 -12.2%
Cc1cc(F)ccc1-n1nnc(C(N)=O)c1C -9.2%
O=C(c1ccccc1Cl)N(Cc1ccco1)Cc1ccco1 -6.31%
Cc1cccc(NC(=O)c2sc3nc4c(cc3c2N)CCCCCC4)c1C 1.78%
COC(=O)c1c(NC(=O)Cc2coc3ccc(C)cc23)sc2c1CCC2 -11.3%
Cc1ccc(C(=O)c2ccc(CC(=O)O)n2C)cc1 -15.5%
C/C(=N\O)c1ccc(OCC(=O)N2CCCCC2)cc1 -7.8%
COc1ccc(-n2nc(C(=O)Nc3ccc(Cl)cn3)c3c4ccccc4n(C)c3c2=O)cc1Cl -21.7%
COc1ccc(CCN2C(=O)c3[nH]nc(-c4ccccc4O)c3C2c2cccc(OC)c2)cc1 (configuration not stated) -16.9%
Cc1ccccc1NC(=O)Cn1c(=O)n(CCc2ccccc2)c(=O)c2sc3ccccc3c21 -2.46%
Cc1[nH]c2ccccc2c1C(c1ccccc1)c1cccs1 (configuration not stated) 4.87%
CCOC(=O)c1ccc(NC(=O)CC2C(=O)N(c3ccc(C)cc3)C(=O)N2C2CCCCC2)cc1 (configuration not stated) -13.9%
Cc1cc(C(F)(F)F)nn1-c1nc(-c2ccccc2)cc(C(F)(F)F)n1 -23.1%
CCCCN(CCCC)CCCOC(=O)c1ccc(N)cc1 -4.74%
Cc1cc(=O)n(CC(=O)Nc2ccc([N+](=O)[O-])cc2)c(-n2nc(C)cc2C)n1 -19.4%
CCOC(=O)c1ccccc1NS(=O)(=O)c1ccc(N2CCCCS2(=O)=O)cc1 -14%
COc1cc(NC(=O)c2nn(-c3ccc(C)cc3)c(=O)c3c2c2ccccc2n3C)cc(OC)c1OC -20.9%
CCc1nn(CC(=O)NC(C)CC)c(=O)c2cc3c(OC)cccc3n12 (configuration not stated) 1.86%
CC(C)S(=O)(=O)c1oc(-c2ccc(F)cc2)nc1S(=O)(=O)c1ccccc1 -32.4%
FC(F)(F)C(Cl)Br (configuration not stated) -10.2%
CN1CCN(c2oc(/C=C/c3ccc(F)cc3)nc2C#N)CC1 4.35%
Cc1cccc(-n2c(SCc3nc(-c4ccccc4C)no3)nnc2-c2ccccc2)c1 -8.14%
O=C(O)CN1C(=O)c2cccc3cccc(c23)C1=O -16.6%
COc1cccc(N2CCN(C(=O)c3cc4c(=O)n(Cc5ccccc5)ccc4nc3C)CC2)c1 2.73%
Cc1cccn2c(=O)c(C(=O)NCc3ccccc3Cl)c(O)nc12 -10.5%
CC[N+](C)(CC)CCOC(=O)C1c2ccccc2Oc2ccccc21 -9.86%
COc1ccc(-c2noc(-c3ccc(N4CCN(c5ccc(OC)cc5)CC4)c([N+](=O)[O-])c3)n2)cc1 -3.4%
CCOc1ccc(-n2nc(CO)c(C(=O)NCc3cccnc3)n2)cc1 -8.81%
Cc1ccsc1CN(Cc1ccco1)C(=O)c1ccc(Cl)cc1 -1.46%
CCOC(=O)c1cc(-c2ccc(OC)cc2)n(CCC(=O)NCc2ccccc2OC)c1C -11.2%
Cc1ccc(C)c(N2CCN(S(=O)(=O)c3ccc(-c4cc(C(F)(F)F)on4)s3)CC2)c1 -19.9%
O=C(NCCc1ccc(Cl)cc1)C(=O)NCC(c1ccc2c(c1)OCO2)N1CCOCC1 (configuration not stated) -4.75%
CC(C)c1c(C(=O)Nc2ccccc2)c(-c2ccccc2)c(-c2ccc(F)cc2)n1CC[C@@H](O)C[C@@H](O)CC(=O)O -13.4%
Cc1c(Cl)cccc1NC(=O)C1CCCN(C(=O)c2cnn(-c3ccccc3)c2-n2cccc2)C1 (configuration not stated) -8.41%
O=C(CN1C(=O)COc2ccc(S(=O)(=O)N3CCOCC3)cc21)Nc1ccc(F)c(Cl)c1 3.41%
O=C(Nc1nc2ccc(F)cc2s1)c1nc(SCc2ccccc2F)ncc1Cl -7.43%
O=C(Nc1nc2c(F)cc(F)cc2s1)c1ccc2c(c1)OCCO2 -10%
COc1cc(OC)c(N(C)C(=O)c2cn(C)c(=O)c3cc(OC)c(OC)cc23)cc1Cl -12.5%
Cc1cc(S(=O)(=O)Nc2cc3c(cc2Cl)n(C)c(=O)c(=O)n3C)ccc1F -20.4%
Cn1c(=O)c2cc(C(=O)N3CCN(c4cccc(C(F)(F)F)c4)CC3)sc2c2ccccc21 -13.2%
O=C(Nc1cc(C(F)(F)F)ccc1Cl)c1cc(-c2cccs2)nc2ccccc12 -4.44%
Cc1cc(C)c(S(=O)(=O)NCCc2sc(-c3cccnc3)nc2C)c(C)c1 -7.68%
CCOc1ccccc1N(C)C(=O)c1cc(S(=O)(=O)NCCc2ccc(Cl)cc2)ccc1F 4.2%
Cc1ccccc1CNC(=O)CCc1cn(Cc2ccccc2C)c2ccccc12 -3.79%
CC(C)(C)c1ccc(C(=O)N2CCC(c3noc(-c4ccc(S(=O)(=O)N5CCCC5)cc4)n3)CC2)cc1 -10.7%
CCN(CC)S(=O)(=O)c1ccc(NC(=O)c2ccc3c(=O)n4c(nc3c2)CCCCC4)cc1 -9.09%
CCOc1ccc(NC(=O)c2ccc3c(c2)nnn3C2CCCC2)cc1 -16.3%
Cc1nn(S(=O)(=O)c2ccc(F)cc2)c(C)c1S(=O)(=O)N1CCCCC1 6.55%
Cc1ccc2c(c1)N(C(=O)CCC(=O)Nc1ccc(F)cc1F)CC(C)O2 (configuration not stated) -20.8%
CCN[C@H]1CN(CCCOC)S(=O)(=O)c2sc(S(N)(=O)=O)cc21 -9.67%
COc1ccc(NC(=O)CSc2c3c(nc4ccccc24)CCC3)cc1Cl 7.59%
CC(C)(C)C(=O)Nc1nnc2n1CCS2 -15.6%
Cc1c(C(=O)Nc2cccc(C(F)(F)F)c2)oc2ccc(S(=O)(=O)N3CCC4(CC3)OCCO4)cc12 -0.545%
Cc1ccc(NC(=O)C2CCN(S(=O)(=O)c3cccc4nonc34)CC2)c(Cl)c1 -4.2%
O=C(Nc1ccc(-c2nc3ccccc3s2)c(O)c1)c1ccc(Br)cc1 -14.1%
CCOC(=O)c1c(C)[nH]c(C)c1S(=O)(=O)N1CCC(C(=O)NCc2cccc(C)c2)CC1 0.609%
CCc1ccccc1NC(=O)CSc1nc(C)c(C(=O)Nc2ccccc2)c(-c2ccc(Cl)cc2)c1C#N -0.577%
Cc1cccc(NC(=O)CSc2nnc3[nH]c(=O)cc(C)n23)c1C -19.3%
CCOC(=O)C1=C(CS(=O)(=O)c2ccc(C(C)(C)C)cc2)NC(=O)NC1c1cccc(OC)c1 (configuration not stated) -10.5%
Cc1cc(=O)c2c(O)c3c(O)cc(=O)c4c3c3c(cc(O)c1c23)C(C)(C)C=4O -13.4% [at 23.8 µM]
O=C(CCn1c(=O)c2cccn2c2cccnc21)Nc1ccccc1Br 4.41%
O=C(CSCc1ccc(F)cc1)N1CCc2c([nH]c3ccccc23)C1c1ccc(F)cc1 (configuration not stated) 2.18%
COc1ccc(N2CCN(C(=O)c3cnc(SC)nc3C)CC2)cc1 -9.63%
COc1ccc(-c2cc3c(=O)n(CC(=O)Nc4ccc(Br)c(C)c4)ccn3n2)cc1OC -15.5%
Cc1nn(CC(=O)NCc2cccc(Br)c2)c(=O)c2c1sc1ccccc12 3.64%
CN(C)c1ccc(CNC(=O)CN2C(=O)c3cccnc3Oc3ccc(Cl)cc32)cc1 4.09%
Cc1cc(C)c(S(=O)(=O)NCCc2cc3cc(C)c(C)cc3[nH]c2=O)c(C)c1 -2.9%
O=S(=O)(NCCc1nnc2ccc(SCc3ccc(C(F)(F)F)cc3)nn12)c1ccccc1 -8.75%
CC(C)C(=O)Nc1nnc(S(=O)(=O)N2CCCCCC2)s1 -11.4%
COCCNC(=O)C1CCC(CNS(=O)(=O)c2ccc3c(c2)CC(C)N3C(C)=O)CC1 (configuration not stated) 3.57%
O=C(C1COc2ccccc2O1)N1CCN(c2nc3c(F)cccc3s2)CC1 (configuration not stated) -11.2%
COc1ccc(N(CC(=O)NCc2ccccc2Cl)S(=O)(=O)c2c(C)[nH]c(=O)[nH]c2=O)cc1 -8.46%
NS(=O)(=O)c1cc(C2(O)NC(=O)c3ccccc32)ccc1Cl (configuration not stated) -16.4%
COc1cccc(C(c2sc3nc(-c4ccco4)nn3c2O)N2CCOCC2)c1 (configuration not stated) -8.83%
COc1ccc(NC(=O)CSc2nnc(-c3ccc(OC)cc3)s2)cc1 -7%
Cc1ccc(Nc2nc3ccc(C)cc3nc2-n2nc(C)cc2C)c(C)c1 -9.85%
Cc1c(C(=O)Nc2cccc(F)c2)oc2c1-c1nn(Cc3c(F)cccc3Cl)cc1CC2 -1.68%
COc1cc(C(CC(=O)Nc2ccc(Br)cn2)N2Cc3ccccc3C2=O)cc(OC)c1OC (configuration not stated) -21.2%
COc1cccc(CNC(=O)c2sc3nc4n(c(=O)c3c2C)CCC4)c1 -16.6%
O=C(NCCc1cccs1)c1ccc(Cn2c(SCc3ccccc3)nc3cccnc32)cc1 -12.5%
Cc1ccc(N(Cc2cccs2)C(=O)Nc2cccc(Cl)c2)cc1 -6.84%
Cc1c(Cl)cccc1NC(=O)NCc1c(-n2cccc2)sc2c1CCCC2 -20%
Cc1ccc(CNC(=O)c2c(O)nc3ccccn3c2=O)cc1 -7.1%
Cc1ccc(Cn2c(=O)n(CC3CCC(C(=O)N4CCC(C)CC4)CC3)c(=O)c3sccc32)cc1 (configuration not stated) -20%
Cc1oc2c(c1C(=O)Nc1ccccc1Br)C1=NCCN1C=N2 -1.72%
COc1ccc(N2CC3=C(C2=O)C(c2ccc(O)c(OC)c2)NC(=O)N3C)cc1 (configuration not stated) -22.5%
CCOc1ccccc1NC(=O)Cn1cnc2c1c(=O)n(C)c(=O)n2C -10.5%
CCOC(=O)c1ccccc1NC(=O)c1cc2c(s1)-c1c(C)cccc1OC2 -22.4%
